# Results from the RNAGym collection of RNA variant scans (doi:10.7554/elife.90254).
# Read counts are not given, so values of variants with three or more changes are uncertain.
# B1: OR4K15 (parent)
# chain: GUUAACGGUCAUAGGCCAUGGAAACUAGGAGCACCAUUUCGCUGCCAGUGAAGAAAUGAACAAAGAAAAUCUGGGCCAGGCAGGCAUCAAAAGAAAUAGUCUUGCGCUCAACCAGAAAGUCUGUAAUCAUUUUAAGGGUA
# Variants of: B1
# Test: self-cleavage, relative activity (ratio to wild type); higher = more cleavage; in vitro, sequencing; the parent is a self-cleaving ribozyme
row,Variant,self-cleavage
1,A36U U70C U102C,1.39
2,U37C A67G U97C A114G,0.24
3,U2C U38A A78U U100C C101G,0.03
4,A30U G31U A67G U108C,0.01
5,U38A A68G A90G A92G,0.88
6,A82U U103C U120A,0.05
7,U9C A96G A134G,2.14
8,A24G A52U U87C U122A,1.09
9,U70C A82G U122C U124A,0.11
10,A24G C32U U43G A52G,0.57
11,A36G A52U A59G,1.53
12,U43C A110C A118G,0.32
13,U2C C32U A56G,0.71
14,U3C A23G A59G A111U,0.26
15,U43C A92G U102C,1.35
16,U3A U39A U43C,1.09
17,U57C A60G A82U A89U U139C,0.22
18,C17U A56G G123U,1.7
19,A22G A78G U97C,0.24
20,A47G A54G U100A A125G,0
21,G15A G58A A60U,1.24
22,A5G A18G A111G A114G U131C,0.01
23,A23G A27G A52G,1.07
24,C61A U124C A126G,0.95

row,Variant,self-cleavage
1,A60G A118U A126G,0.21
2,A47G G74A U87A,0.14
3,A91C A110G A116G,0.04
4,U38C U39A A69U U108A U122C,0.02
5,A24U A30G U70C A78U U102C A126U,0.35
6,C85G A90G A126G,0.69
7,A18U U37C A56G,1.46
8,U26C A62C A67G U132G,0.42
9,A33U U49A A114U A125G,0.01
10,A33G U39A A55G A78G C121U,0.3
11,U39G A55C U97A A111G A114G,0.02
12,G53A A94G C113U,0.22
13,A51G A78G A126G,0.25
14,U39A A52G U70C U108C,0
15,A23G G115U A118G,0.18
16,G29A A111G A125G,0.02
17,C17U A23G G41U U57C G137U,1.43
18,U19C U49C A60U,0.76
19,A66G U72C A82U A125U,0.07
20,A55G A89G U108C,0.01
21,U2C U9A A24U C109U A117U,0.16
22,G8A A55G U131C A140G,1.76
23,A52G A55G U70C A82G,0.36
24,A22G U39C A47U,1.23

row,Variant,self-cleavage
1,G1A U9A A69G A89G,1.4
2,A33G U97C A98G U108C,0
3,U100C U108C A125G,0
4,U38C U72C A92G,0.02
5,A30U A51G U57A U127C,0.3
6,U2C U103C U108A A135G,0
7,G7U U9A A69G,0.89
8,A13U U39C U120C,0.84
9,A82G A96G A118G A134G,0.15
10,A23C U49C A52G A56G,2
11,U9C U37C G106U,0.01
12,U9C A56G A60G A69G,0.61
13,U39C U49C A52G A78U A94G,0.11
14,U57C A114G A118G,0.05
15,U3C U49A A90U,0.91
16,A30G A52G A114C,0.07
17,U49C U102C A118U A126G,0.8
18,A69G A78G A92G U122A,0.35
19,A51G A67U U70C A111G U120C,0.1
20,A91U A92G U103C G119A,0.39
21,C16U A22G A66G,1.95
22,A47G A54U A92G A111U,0.07
23,U3C U26C U87C A89U A96G U108A A117G,0.01
24,U19A U97C G115U,0.07

row,Variant,self-cleavage
1,U12C A24G A51G,1.23
2,A11G A96G U97G,1.63
3,G41A U103C C121U,1.46
4,A96G U102A U103C U108A A111G A114G,0
5,A55G A62U A82G U100A,0.1
6,U9C A78G A116U,0.12
7,U2G A13G A33G,0.7
8,A22G A66G U70C U120C A129G,0.1
9,U9C U37C U139C,1.58
10,A18U A96G A118G,1.59
11,A23G A24G U38C A54G,1.06
12,A36U A54G U72C A96G U122C,0.04
13,A5G U57C A68G,0.96
14,A51U A64G A94G A117U,0.94
15,U3A A59C A91U U133C,1.2
16,G15C A56G A135C,0.5
17,A5G A22G A66G A68G U131C,0.99
18,U38C A67G A91G A94G,1.08
19,A11G A59G A117U,0.28
20,A5G G20A G48A A60G A91G U108A,0.01
21,U12C U26A A56G,0.74
22,U57C A111G A129G,0.01
23,U43A G79U A86G G137A,0.06
24,A27G U38C C45U U57C,1.2

row,Variant,self-cleavage
1,A63G A90G A116G U122C,0.05
2,A23G A69G A82U G136C,0.31
3,U39A A62G U70A,1.14
4,A22G A82G U87A A92G,0.16
5,U39C A78G A96U A116G,0.12
6,U3C A92G U108C A111G A116G U130G,0
7,A33G A68G G75C U120A U122C,0.06
8,A11U A23G A89U,0.61
9,G44A U108C U122C,0
10,U2C A110G U127C,0.09
11,U2C U39C A111G,0.06
12,G7U U127A U130C,0.84
13,A24U A56G A78C,0.14
14,U9C A22G A89G,1.7
15,U43G G48A A62G U87C,1.32
16,U12C A27G A82U A89G U139A,0.2
17,U49C A52G G106U U131A,0.03
18,U37C A51G A78G A82U C113U,0.03
19,A22U A63G U108C U127C,0.01
20,A68G A78U A86G A110G A118G,0.03
21,A4G A5G U37C U57A,0.51
22,A18U A66G A94G A117G,0.71
23,U19C U49A G53U A90G,1.06
24,A18G A55G A67G A69G A91G,0.74

row,Variant,self-cleavage
1,A55G A68G U87C A89G A118G,0.29
2,U38C A56G A140G,1.15
3,U19A U37C A51G A62G,1.17
4,C32U A66G A86G,0.48
5,U3C U57A A82G A92G U132C,0.33
6,U49C A82G U100C,1.71
7,U9C A36G A68G U132C,1.96
8,A30G U43C A62G A69G U100C A117G,0.76
9,A33U U49C A51G A90G,1.5
10,U3A U43C A59G U108C C121A U124A,0
11,A11G U49G A95U,0.4
12,A13G A54G U87C U100A,0.9
13,A67G U72C U87C U139C,0.29
14,U12A A56G A89G A126C,0.85
15,U43C U70C A96G,0.39
16,A27U U49G U102C A117G A129G,2.11
17,A11U A22G A54U U139A,1.45
18,U38C A62G C77U A86U,1.79
19,A13U A23G U37C A52G A116G,0.23
20,A56G U87C U108C,0.02
21,A11U A23G A62U,0.74
22,U43A U57A U87A A98U U102C U108A U120C,0
23,A91G U108A A116G,0.01
24,U2C U9C A23G A52G,0.91

row,Variant,self-cleavage
1,A62G G93A A94G A140G,1.34
2,U9A A66C C85U U87C A95G A117G,0.81
3,A33U A91G U139A,1.19
4,U38A C40U U57A,1.07
5,G119A A129G U130C,1.92
6,A78G A117G U122A,0.08
7,A33U A52G A56G A63U G73A U131C A134G,0.1
8,U3C A5G A140U,0.16
9,U49C A52G U122A,0.84
10,G84A A92G U122C U131G,0.64
11,A5G C10U A22G A60G A68G,0.42
12,A5U A23C A59U,1.23
13,A30G G73A A96U,0.17
14,U9C A129U A135G,2.02
15,A30G U38C A110G A111G,0.07
16,C61U A91G A117G,2.1
17,A13G A60G A68G,0.9
18,A52G A60G A62G A82G A94G,0.32
19,A18U C34A A66G U127C,1.45
20,A22G A94G A116G U127C,0.32
21,A33G A64G A117C,0.22
22,A18G A66G A86G A92U A96G A111G A117G,0.01
23,C6U A54G A64G A92G A140G,1.07
